Scores whose standard error is large were omitted. Not listed are two conditions whose scores span a narrow range. Read del as a deletion of the residues named and ins as an insertion between two positions. For some of these results: How much ogerin was present is not stated here.
B1: GPR68, Q15743 (parent)
chain: MGNITADNSSMSCTIDHTIHQTLAPVVYVTVLVVGFPANCLSLYFGYLQIKARNELGVYLCNLTVADLFYICSLPFWLQYVLQHDNWSHGDLSCQVCGILLYENIYISVGFLCCISVDRYLAVAHPFRFHQFRTLKAAVGVSVVIWAKELLTSIYFLMHEEVIEDENQHRVCFEHYPIQAWQRAINYYRFLVGFLFPICLLLASYQGILRAVRRSHGTQKSRKDQIQRLVLSTVVIFLACFLPYHVLLLVRSVWEASCDFAKGVFNAYHFSLLLTSFNCVADPVLYCFVSETTHRDLARLRGACLAFLTCSRTGRAREAYPLGAPEASGKSGAQGEEPELLTKLHPAFQTPNSPGSGGFPTGRLA

Key:
[1] = variants of: B1; experiment: cAMP reporter score (Enrich2 score, wild type = 0); higher = more signal; HEK293T, FACS bins
[2] = variants of: B1; experiment: surface expression score (Enrich2 score, wild type = 0); higher = more signal; HEK293T, FACS bins

Variant	cAMP reporter score ([1]; pH 5.5)	cAMP reporter score ([1]; pH 6)	cAMP reporter score ([1]; pH 6, modulator: ogerin)	cAMP reporter score ([1]; pH 6.5, modulator: ogerin)	surface expression score [2]
R170del	-1.16	-1.23	-1.61	-1.76	-0.079
V171A	-1.56	-0.952	-0.825	-1.4	0.277
V171C	-2.69	-0.605	–	-1.44	0.476
V171E	-0.404	–	-1.06	–	–
V171F	-0.722	–	–	-0.504	0.315
V171G	-1.37	-1.4	-0.968	-0.802	1.28
V171H	-0.628	-0.56	-0.867	-1.26	0.345
V171I	0.069	0.251	-0.435	0.384	-0.501
V171K	-0.718	–	-0.635	-0.737	0.374
V171L	-0.002	-0.144	0.529	0.245	1.05
V171M	0.125	-0.228	-0.118	-1.07	1.04
V171N	-0.337	-1.1	-1.75	-1.05	-0.156
V171P	-1.14	-0.372	-1.9	-1.01	-0.123
V171Q	-0.861	-1.81	–	-0.489	0.612
V171R	0.589	-0.145	0.462	2.06	0.814
V171S	-0.623	-0.726	-0.697	-0.737	-0.611
V171W	-0.819	-1.49	-1.81	-0.457	0.319
V171Y	-0.917	-1.45	-1.65	-0.791	-0.231
V171_C172del	-1.52	–	-1.44	-0.81	-1.12
V171_C172insG	-0.902	-1	-1.65	-0.837	-0.249
C172A	-1.68	–	–	-0.974	-0.911
C172D	-2.25	-1.5	-2.46	-1.45	-1.3

Variant	cAMP reporter score ([1]; pH 5.5)	cAMP reporter score ([1]; pH 6)	cAMP reporter score ([1]; pH 6, modulator: ogerin)	cAMP reporter score ([1]; pH 6.5, modulator: ogerin)	surface expression score [2]
C172E	-1.04	-0.586	-1.54	–	–
C172F	-1.64	-1.04	-1.58	-0.925	-0.932
C172H	-1.43	-1.82	-1.22	-1.24	-1.06
C172I	-1.38	-0.662	-1.81	0	-0.588
C172K	-1.4	-1.06	-2.4	-1.4	-1.74
C172L	-1.49	-1.1	-1.53	-1.2	-1.03
C172M	-1.78	-1.59	-2	-1.55	-1.24
C172P	-2	-1.07	-1.29	-1.52	-0.789
C172Q	-1.84	-1.24	-1.95	-1.36	-0.92
C172R	-1.24	-1.16	-1.46	-1.52	-2.46
C172S	-0.469	–	0.14	-0.512	-0.186
C172T	-1.47	-1.46	-1.48	-1.63	-1.6
C172V	-0.925	–	–	-0.817	-0.377
C172W	-2.29	-0.441	-1.5	-0.545	–
C172Y	-1.46	-0.484	-0.739	-0.745	0.33
F173_E174insG	-1.32	-1.53	-1.72	-1.79	-2.27
F173_E174insGS	-0.219	-0.702	-1.87	-1.2	-0.245
E174A	-1.52	–	-0.682	–	1.91
E174C	-1.06	-0.492	-0.437	0.082	0.856
E174D	-0.418	-1.01	-0.873	-1.37	0.443
E174F	-1.2	-1.4	-1.3	-1.59	0.389
E174G	-0.974	-0.284	-0.592	-0.592	-0.321

Variant	cAMP reporter score ([1]; pH 5.5)	cAMP reporter score ([1]; pH 6)	cAMP reporter score ([1]; pH 6, modulator: ogerin)	cAMP reporter score ([1]; pH 6.5, modulator: ogerin)	surface expression score [2]
E174H	-0.482	-0.66	–	-0.078	–
E174I	-1.82	-2.19	-1.82	-1.52	-0.568
E174K	-0.387	-0.772	–	–	1.78
E174L	-1.82	-2.23	-1.17	-2.38	-1.42
E174M	-2.21	-1.4	-2.07	-0.887	-0.399
E174N	-1.12	-0.376	-1.55	-1.79	-0.942
E174P	-0.004	0.277	-0.293	-0.829	-0.517
E174Q	-1.77	-1.35	-1.15	-1.56	1.4
E174R	-0.943	-0.849	–	-0.39	-0.45
E174S	-1.83	-0.092	-1.39	-0.335	2.25
E174T	-1.27	-1.34	-1.47	-1.25	0.137
E174V	-0.44	0.273	-1.41	-0.67	0.034
E174W	-1.31	-1.72	-1.66	-1.86	-0.325
E174Y	-1.64	-1.02	-1.76	-1.36	-0.75
E174_H175del	-1.39	-1.55	-0.76	-0.58	0.131
E174_H175insGS	-1.57	-1.77	-1.51	-1.41	-0.141
E174_Y176del	-0.471	-0.637	-1.57	-0.682	-1.68
H175_P177del	-1.13	0.038	–	–	-1.51
H175_Y176del	-1.63	-0.776	–	-0.895	-1.36
H175_Y176insGS	-2.11	-0.535	-0.156	-0.413	0.056
Y176del	-1.79	-1.3	-0.944	-1.39	-2.06

— the GPR68 mutational scans of Howard et al. (2025)
